Source: article PMC4336329 (PLoS ONE, 2015)
About 14,000 (4.5%) of roughly 310,000 compounds showed an effect of 50% or more. Effects have a minus sign here. Some of the results follow.

Biological target: human ether-à-go-go-related gene (hERG) potassium channel (human, UniProt Q12809)
Assay: primary screen, population patch clamp on CHO cells stably expressing hERG
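Note: peak tail current of the secondary pulse compared with the same well before compound.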

Chain of human ether-à-go-go-related gene (hERG) potassium channel (Q12809 whole entry, looked up): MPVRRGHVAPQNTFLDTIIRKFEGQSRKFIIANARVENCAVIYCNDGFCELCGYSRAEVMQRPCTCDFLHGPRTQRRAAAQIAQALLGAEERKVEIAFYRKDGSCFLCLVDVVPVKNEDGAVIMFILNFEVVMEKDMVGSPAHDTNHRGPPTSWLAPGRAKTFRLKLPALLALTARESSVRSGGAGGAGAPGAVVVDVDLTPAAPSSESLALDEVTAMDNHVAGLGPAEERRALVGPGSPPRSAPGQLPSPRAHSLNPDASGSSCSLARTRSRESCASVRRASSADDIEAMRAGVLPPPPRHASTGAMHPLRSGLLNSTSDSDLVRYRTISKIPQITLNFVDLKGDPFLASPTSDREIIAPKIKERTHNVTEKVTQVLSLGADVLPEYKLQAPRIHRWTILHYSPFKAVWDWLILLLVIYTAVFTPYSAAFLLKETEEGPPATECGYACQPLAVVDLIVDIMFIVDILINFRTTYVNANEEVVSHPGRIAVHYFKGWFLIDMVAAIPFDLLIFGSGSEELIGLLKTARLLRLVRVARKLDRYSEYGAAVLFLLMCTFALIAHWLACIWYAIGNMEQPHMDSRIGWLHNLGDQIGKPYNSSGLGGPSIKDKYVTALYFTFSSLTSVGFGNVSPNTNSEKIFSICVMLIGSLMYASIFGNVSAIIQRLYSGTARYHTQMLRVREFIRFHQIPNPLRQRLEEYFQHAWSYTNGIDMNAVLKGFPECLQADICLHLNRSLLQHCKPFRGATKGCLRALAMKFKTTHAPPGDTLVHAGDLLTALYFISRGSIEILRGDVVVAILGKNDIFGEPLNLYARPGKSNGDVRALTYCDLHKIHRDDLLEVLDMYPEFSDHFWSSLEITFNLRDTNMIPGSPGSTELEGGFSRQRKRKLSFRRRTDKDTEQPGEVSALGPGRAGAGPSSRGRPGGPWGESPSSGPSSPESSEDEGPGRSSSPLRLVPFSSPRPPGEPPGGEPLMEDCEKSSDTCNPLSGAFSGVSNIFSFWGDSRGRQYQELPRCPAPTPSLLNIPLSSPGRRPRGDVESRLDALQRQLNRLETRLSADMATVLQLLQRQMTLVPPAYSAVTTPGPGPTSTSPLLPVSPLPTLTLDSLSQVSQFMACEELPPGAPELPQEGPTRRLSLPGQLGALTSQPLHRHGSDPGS

SMILES | hERG current change (%, negative = inhibition) at 10uM [%]
Cc1cc(C)c(C#N)c(SCc2ccccc2C)n1 | 17.7
COC(=O)c1c(NC(=O)CSc2nnc(C)c(=O)[nH]2)sc(C)c1C | 27.1
COC(=O)C1CSC(C(=O)OC)N1C(=O)CN1CCN(c2ccc(OC)cc2)CC1 (centres unmarked) | 4.54
COc1ccc(-c2noc(CCC(=O)N3CCN(c4cccc(C(F)(F)F)c4)CC3)n2)cc1 | 7.75
CC1CCCCC1NC(=O)c1cc(S(=O)(=O)N2CCCCC2)ccc1N1CCOCC1 (centres unmarked) | -9.14
CCC1=NN(C(=O)COc2ccccc2)C(O)(c2ccc(Br)cc2)C1 (centres unmarked) | -28.6
Cc1cccc(N2CCN(C(=O)CSCc3c(C)noc3C)CC2)c1C | -14.9
CCN(CC(=O)Nc1c(F)cccc1F)C(=O)c1cccnc1Sc1ccccc1 | 15.5
Nc1nc(CCl)nc(Nc2cccc3ccccc23)n1 | -3.1
Cn1c(=O)[nH]c(=O)c2c1nc(N1CCNCC1)n2Cc1cccc2ccccc12 | -16.4
CC(NC(=O)N(Cc1ccccc1)Cc1ccc2c(c1)OCO2)(C(F)(F)F)C(F)(F)F | 7.8
Cc1ccc(C)c(NC(=O)C2COc3ccccc3O2)c1 (centres unmarked) | 14.4
Br.COc1ccc(-c2nc(NC3=NCCCCC3)sc2C)cc1 | -26.6
CSC(=NC#N)N1CCN(c2cccc(Cl)c2)CC1 | -30
COc1ccc(-c2cc(C(=O)NCc3ccco3)c3ccccc3n2)c(OC)c1 | -21
Cc1cccc(C)c1OCc1nc2ccccc2[nH]1 | -0.773
CCN(CC)c1ccc(/C=C/C(=O)C2C(=O)C=C(C)OC2=O)cc1 (centres unmarked) | 3.74
CCOC(=O)c1c(NC(=O)c2ccc(N3C(=O)[C@@H]4[C@H](C3=O)[C@H]3C=C[C@@H]4C3)cc2)sc2c1CC(C)CC2 (some centres unmarked) | 22.9
CC(C)(C)c1ccc(N2C(=O)CC(C/C=C/c3ccccc3)C2=O)cc1 (centres unmarked) | 9.68
On1c(-c2ccccc2Cl)nc2ccccc21 | 15.2
Nc1ccccc1SC(C[N+](=O)[O-])c1ccccc1 (centres unmarked) | 3.79
CC(Sc1nc2ccccc2c(=O)n1CCc1ccc(S(N)(=O)=O)cc1)C(=O)NC(N)=O (centres unmarked) | 10.1
Cc1ccc(N=Nc2c(C)[nH][nH]c2=O)c(C)c1 | -1.31

SMILES | hERG current change (%, negative = inhibition) at 10uM [%]
CCOc1ccc(S(=O)(=O)Nc2nc3ccccc3nc2-n2ccc(=NC(=O)c3cccs3)cc2)cc1 | 5.88
COc1ccc(/C=C(/C#N)C(=O)Nc2ccc(C)cc2C)cc1C(=O)O | 19.4
Cc1ccc(S(=O)(=O)n2nc(OC(=O)c3ccccc3C)cc2N)cc1 | 10.8
CCOc1ccc(C2NC(=O)NC(c3ccccc3)=C2C(C)=O)cc1OC (centres unmarked) | 15.7
Cc1ccc2cc(CN(Cc3ccco3)C(=O)c3ccco3)c3nnnn3c2c1 | -37
CCCCCCCCCOC(=O)C(CC(=O)O)N1CCOCC1 (centres unmarked) | -1.34
C/C(=C/c1ccccc1)C(=O)N1CCN(c2ccccc2F)CC1 | -16.4
CCN(CC)S(=O)(=O)c1ccc(N2CCN(c3ccccc3OC)CC2)c(N)c1 | 8.52
Cc1ccc(Cl)cc1N1CCN(C(=O)c2ccc(NS(=O)(=O)c3c(C)noc3C)cc2)CC1 | 17.5
Cc1cccc(NC(=O)CSCC(=O)N(C)Cc2ccc(Cl)c(Cl)c2)c1 | -14.7
COc1ccc(C(=O)Nc2ccc(F)cc2F)cc1 | -10
Cc1nc(N)nc(OCC(F)(F)C(F)F)c1Br | -16
CCCN1CCN(c2ccc(S(N)(=O)=O)cc2[N+](=O)[O-])CC1 | -31.4
COc1ccccc1C(=O)NC(=O)COC(=O)c1nc2nc(C)cc(C)n2n1 | 8.79
COC(=O)c1sccc1NC(=O)Nc1cccc(F)c1 | 4.72
CN1C(=O)NC(NC(=O)C2CCCCC2)(C(F)(F)F)C1=O (centres unmarked) | 5.43
O=C(COC(=O)C1C2CC3OC(=O)C1C3C2)Nc1ccc(Br)cc1 (centres unmarked) | -10.1
CCOC(=O)N1CCN(Cc2nc(N)nc(Nc3ccc(Cl)cc3)n2)CC1 | -72.4
O=S(=O)(c1cccc(F)c1)N1CCC(CO)(Cc2cccc(F)c2)CC1 | -18.2
Cn1cnnc1SCc1ccccc1 | -1.83
O=C(N/N=C/c1cccs1)c1ccc(NC(=O)c2ccccc2Cl)cc1 | 12.4
O=C(Nc1ccc(C(F)(F)F)cc1)c1ccccc1-n1cnnn1 | -39.4
O=C(Nc1ccc(Cl)cc1)Nc1ccc(S(=O)(=O)Nc2ncccn2)cc1 | 8.68

SMILES | hERG current change (%, negative = inhibition) at 10uM [%]
Oc1cc2c(cc1O)C1c3ccc(O)c(O)c3OCC1(O)C2 (centres unmarked) | 18.1
N#Cc1c2ccccc2nc2ccccc12 | 2.22
O=C(Nc1ccc2c(c1)OCO2)c1cc(C2CC2)on1 | 17.5
CN(C)/C=N/NC(=O)c1ccccc1 | 19.2
C(=C\c1ccc2ccccc2n1)/c1ccccc1 | -6.05
CCOC(=O)C1CCN(C(=O)CC(C)c2ccccc2)CC1 (centres unmarked) | 5.61
COc1cccc(-n2nc3c(=O)n(Cc4ccccc4Cl)nc(C)c3c2C)c1 | 9.45
O=C(CSc1ccsc1[N+](=O)[O-])N1CCCCC1 | -4.61
CCN1CCN(C(=S)NC(=O)c2cccs2)CC1 | -1.01
C=CCOc1ccccc1CN1CCN(CCc2ccccc2)C(CCO)C1 (centres unmarked) | -59.4
Cc1ccc(C(=O)Nc2cccnc2)cc1S(=O)(=O)N1CCCCCC1 | -33.7
Cc1ccc(C)c(OCc2nc(-c3cccnc3)no2)c1 | 8.11
CCOc1ccccc1N1CCN(C(=O)CCNS(=O)(=O)c2ccccc2F)CC1 | 1.84
Cc1ccnc(SCC(=O)Nc2sccc2C#N)n1 | 11.7
COc1ccc2c3n([n+]([O-])c2c1)CCN=C3c1ccc(Cl)cc1 | -6.11
COc1cccc(C(=O)NCC(=O)N/N=C/c2cn[nH]c2-c2ccccc2)c1 | -4.6
CN1CC(C#N)C2(O)c3ccccc3CCC2C1 (centres unmarked) | 9.6
O=C(Nc1cccnc1)c1ccc(COc2ccccc2Br)cc1 | 7.99
COc1ccc(Cc2nnc(NC(=O)Nc3ccc(F)cc3)s2)cc1OC | 6.9
Cc1ccc(Cl)c(OC(=O)Cn2cnc3c2c(=O)n(C)c(=O)n3C)c1 | 19.6
CC(C)OCCCNC(=O)c1cccc2c1C(=O)c1ccc(Cl)cc1S2(=O)=O | -6.26
COc1ccc(Cl)cc1NC(=O)C1CCN(C(=O)C2CC(=O)N(c3ccc(C)cc3)C2)CC1 (centres unmarked) | -60.4
CC(C)NC(=O)CS(=O)(=O)c1ccccc1 | -5.05

SMILES | hERG current change (%, negative = inhibition) at 10uM [%]
CCc1c(C)nc(SCC(=O)N2CC(C)OC(C)C2)[nH]c1=O (centres unmarked) | -11.5
CC(=O)Nc1ccc2sc(NC(=O)CN3CCOCC3)nc2c1 | 18.7
Cc1cccc(CSc2ncnc3nc[nH]c23)c1 | -16.6
CNC(=S)N1CCN(c2ccc(Cl)c(Cl)c2)CC1 | -6.17
Cc1cccc(CSc2ccc(-c3cccs3)nn2)c1 | -12.3
Cc1cc(OCC(O)CN(C)C(=O)C(C)Oc2ccccc2)ccc1Cl (centres unmarked) | -9.56
CCNc1nc(N)nc(Oc2ccc(C(=O)OC)cc2)n1 | 9.43
Cc1cc2ccccn2c1C(=O)c1nc(NCc2ccco2)ncc1Cl | 15.6
CCCn1c(COc2ccccc2)nc2ccccc21 | -12.5
CCc1ccccc1NC(=O)Nc1ccc(F)cc1 | 7.35
c1ccc(-c2cncn2-c2ccccc2)cc1 | -22.2
Cc1ccc(CS(=O)Cc2ccc(C(=O)N3CCN(c4ccccn4)CC3)o2)cc1 (centres unmarked) | -10.1
O=C(Nc1nc2c(s1)CCCC2)c1cccs1 | -0.0237
O=S(=O)(Nc1ccc(Br)cn1)c1cccs1 | 29.4
O=C(NC(=S)NCC1CCCO1)c1ccc([N+](=O)[O-])cc1 (centres unmarked) | -16.6
C[C@]12CC[C@H](O)CC1=CC[C@@H]1[C@@H]2CC[C@@]2(C)[C@H]1CC[C@]2(C)O | -2.51
c1ccc(CCn2nnnc2C(c2cccnc2)N2CCN(c3nc4ccccc4s3)CC2)cc1 (centres unmarked) | -58.7
COc1ccc(NC(=O)Nc2ccccc2C(=O)N2CCCC2)cc1 | 2.56
Cc1nc2c(c(C)nn2-c2ccccc2)c(C)c1C | 6.19
O=C1c2ccsc2SCCN1Cc1cccc(F)c1 | -6.8
O=c1[nH]c(CSc2ccccn2)nc2c1cnn2-c1ccccc1 | -6.32
CC(=O)N1CCN(c2ccc(NCc3cccc4ccccc34)cc2)CC1 | -6.26
CC(=O)Nc1cccc(N(C(=O)C2COc3ccccc3O2)C(C(=O)NC2CCCCC2)c2cn(C)nc2C)c1 (centres unmarked) | 24.1
